Experimental data as given in PubChem BioAssay AID651820 (National Center for Advancing Translational Sciences (NCATS), 2012).
The campaign covered roughly 340,000 compounds. About 12,000 (3.5%) were called active. The inconclusive results got no clear call from the source; some entries with a clear call stand among them for comparison. The call rests on the fitted dose curve; in most records, active means well fitted inhibition curve with a large enough effect; inconclusive means small, poorly fitted or top-dose-only effect, or another doubt; inactive means no such curve, though single readings can be large or run the other way. No potency is given beside an inconclusive call; the fits are too rough.

assay: qHTS Assay for Inhibitors of Hepatitis C Virus (HCV); conditions: Huh7.5.1 HCVcc-Cre (HCVcc is cell-culture hepatitis C virus) infection, luciferase reporter, 44 h; activity change, negative = inhibition: at 41.8 µM (top of the series) unless noted
Procedure, shortened: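 Antiviral activity was scored by luciferase reporter output from cells infected with HCVcc-Cre (~0.5 moi) in presence of compound, 44 h infection period, cells seeded 1,000/well 4 h prior.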
On the % scale 0 is the no-effect control and ±100 the full control effect; potency means the concentration at half of the fitted maximal effect; tags describe the fitted curve by direction and shape.

SMILES	Potency	activity change, negative = inhibition
CCOC(=O)C1=CC[C@H]2c3c(c4ccc(OC)cc4n3C)C(=O)C1N2S(=O)(=O)c1ccc(C)cc1	inconclusive [inhibitor, partial curve]	
Cc1noc(C)c1NC(=O)Nc1ccc2c(c1)C(=O)N([C@H](C)CO)C[C@H](C)[C@@H](CN(C)C(=O)Nc1ccc(C(F)(F)F)cc1)O2	active: 3.98 µM	
COc1ccc(Nc2ncc(C(=O)N3CCN(c4ccccc4OC)CC3)c3ccccc23)cc1	inconclusive [inhibitor, single point]	
O=C1Nc2ccccc2C(=O)N2[C@H](c3cccc(Br)c3)[C@@H]3C(=O)N(Cc4ccccc4)C(=O)[C@@H]3[C@H]12		inactive: 2.78% [at 8.37 µM]
O=C(Cn1ncc(Cl)c(Cl)c1=O)Nc1ccc2c(c1)OCO2	inconclusive [inhibitor, single point]	
Cc1cc(C)c(NC(=O)CSc2nc3ncc(Cl)cc3[nH]2)c(C)c1	inactive	
CCCCCCc1ccc(N2C[C@H](Cc3ccccc3)[C@@H](CC(=O)NCc3ccc(OC)cc3)C2=O)cc1	active: 2.82 µM	
CCN(CC)c1ccc(NC(=O)c2cccnc2)c(C)c1	inconclusive [inhibitor, single point]	
COc1ccc(S(=O)(=O)Nc2cc3c(cc2C(C)=O)OCO3)cc1	inconclusive [inhibitor, single point]	
O=C(NCCN1C(=O)S/C(=C\c2ccccc2F)C1=O)C1=COCCO1	inconclusive [inhibitor, partial curve]	
COc1ccccc1N1CCN(Cc2ccc(O)c3ncccc23)CC1	active: 3.55 µM	
CCN(CC)CCCOC(=O)C(OC(C)C)(c1ccccc1)c1ccccc1	active: 7.08 µM	
CN(Cc1ccco1)C(=O)c1ccc(S(=O)(=O)N2CCCCCC2)cc1	inactive	
Oc1ccc(Br)cc1/C=N/N1CCN(Cc2ccccc2)CC1	inactive	
CC1CCN(S(=O)(=O)c2c[nH]c(=O)[nH]c2=O)CC1	active: 10 µM	
CC(C)c1nn2c(=O)cc(CSc3ccccc3NC(=O)c3ccccc3F)nc2s1	inactive	
Cn1c(/C=C/c2ccccc2)nc2ccccc2c1=O	inconclusive [inhibitor, single point]	
COc1cccc(NC(=O)CSc2cccc[n+]2[O-])c1	inactive	
Cc1ccc(NC(=S)NCC2CCN(C(C)c3ccccc3)C2)cc1C (stereo not given)	inactive	
COc1ccc(C2=NOC(Cn3nc(C(=O)NCc4cccc(Br)c4)cc3-c3ccccc3)C2)cc1 (stereo not given)	inactive	
C=CCOc1ccc(Br)cc1/C=N/O	active: 11.2 µM	
O=C(Nc1ccc(C(F)(F)F)cc1)C1CCCCN1S(=O)(=O)c1ccccc1 (stereo not given)	inconclusive [inhibitor, partial curve]	
CCN(CC)c1nc(-c2ccccn2)nc(-c2ccccc2)c1C#N	active: 6.31 µM	
COc1cc(C(=O)N/C(=C\c2cn(C)c3ccccc23)C(=O)NCCCO)cc(OC)c1OC	inactive	
O=C(Nc1nc2c(Cl)cccc2s1)c1ccc(Br)o1	inconclusive [inhibitor, single point]	

SMILES	Potency	activity change, negative = inhibition
COc1ccc(C(=O)N2CCN(c3ccc(NC(=O)c4cccs4)cc3)CC2)cc1	inconclusive [inhibitor, single point]	
NC(N)=N/N=C/c1ccc2cccc(OCc3ccccc3)c2n1	active: 12.6 µM	
COCCNC(=O)C(c1ccc(C)cc1)N(C(=O)CCC(=O)Nc1ccccn1)C1CCCCC1 (stereo not given)	inactive	
O=C(c1cc2c(s1)-c1ccccc1S(=O)(=O)C2)N1CCN(Cc2ccccc2)CC1	active: 10 µM	
COc1ccc(C[C@H]2COC(=O)[C@@H]2Cc2ccc(OC3OC(CO)C(O)C(O)C3O)c(OC)c2)cc1OC (stereo not given in full)	active: 7.08 µM	
O=C(CCCc1ccccc1)Nc1ccnn1C1CCN(Cc2ccccc2)CC1	inactive	
CCn1ccnc1CN(C)Cc1cn(-c2cccc(C)c2)nc1-c1cccc(F)c1	active: 3.55 µM	
CC1CC(C)CN(C(=S)SCc2nc(N)nc(Nc3ccccc3)n2)C1 (stereo not given)	inconclusive [inhibitor, partial curve]	
COc1ccc(-c2nc3c(c(=O)n(C)c(=O)n3C)n2CC2CC(c3ccccc3)=NO2)cc1OC (stereo not given)	active: 5.62 µM	
O=C(C1=C[C@@H](c2ccccc2)C[C@@H](OCc2ccc(CO)cc2)O1)N1CCN(Cc2ccc3c(c2)OCO3)CC1	active: 11.2 µM	
COc1ccc([C@@H]2[C@@H]3C(=O)N(C(C)(C)C)C(=O)[C@@H]3[C@]3(Cc4ccc(Cl)cc4)C(=O)N(c4ccc(C)cc4)C(=O)N23)cc1	inactive	
O=C(CSc1ccccc1)Nc1cccc(S(=O)(=O)N2CCCCC2)c1	inconclusive [inhibitor, partial curve, poor fit]	
CCCCNc1c(-c2ccc(Sc3ccc(OC)cc3)cc2)nc2cc(C)ccn12	active: 10 µM	
CCOC(=O)CS(=O)(=O)c1nc(-c2ccccc2)cc(C(F)(F)F)n1	inconclusive [inhibitor, single point]	
CNC(=O)c1ccc(NC(=O)CCc2c(C)noc2C)cc1	inconclusive [inhibitor, partial curve]	
O=C(Nc1ccc(Cl)c(Cl)c1)O/N=C/c1ccncc1	inactive	
Cc1cccc(-n2ccc(=O)c(C(=O)Nc3ccc(S(=O)(=O)N4CCOCC4)cc3)n2)c1	inactive	
CN(C)CCCNC(=O)C[C@H]1C[C@H](C(=O)N2CCCCC2)[C@@]2(C)c3[nH]c4ccc(Cl)cc4c3CCN2C1=O	inactive	
CCOC(=O)CSc1nc(C)c2cc(OC)ccc2n1	inactive	
COc1ccccc1CCC(=O)N1CCN(S(=O)(=O)c2cc(C(F)(F)F)ccc2Cl)CC1	inconclusive [inhibitor, partial curve]	
CCOc1ccc(S(=O)(=O)NCc2ccncc2)cc1NC(=O)c1ccccc1	active: 1.78 µM	
Cc1cc(=O)[nH]c2[nH][nH]c(=O)c12	inactive	
O=C(CCc1nnc(COc2ccccc2)o1)NCc1ccc(Cl)s1	inactive	
COc1ccc(C(=O)COC(=O)c2nc3nccc(C)n3n2)cc1F	inactive	
O=C1NN(c2ccccc2)C(=O)/C1=C/c1coc2ccccc2c1=O	inconclusive [inhibitor, single point]	

SMILES	Potency	activity change, negative = inhibition
C=CCn1c(C(C)C)nc2ccccc21	inactive	
O=C(CN(Cc1ccccc1Cl)C(=O)CNS(=O)(=O)c1ccc(F)cc1)NCC1CCCO1 (stereo not given)	inactive	
COc1ccc(NC(=O)COC(=O)c2ccc3c(c2)OCCO3)cc1OC	inconclusive [inhibitor, full curve]	
COc1ccc(OCc2nc(N)nc(Nc3ccccc3OC)n2)cc1	active: 14.1 µM	
C/C(=N\Nc1nc2ccccc2[nH]1)c1ccc(N2CCOCC2)cc1	inconclusive [inhibitor, single point]	
CCOc1ccc(C(=O)N[C@H](C(=O)Nc2cccc(S(=O)(=O)N3CCOCC3)c2)C(C)C)cc1	inconclusive [inhibitor, single point]	
Cc1[nH]c2ccc(C(=O)NCCCN(C)C3CCCCC3)cc2c1C	inactive	
CCOC(=O)C1CCN(c2nnc(N3CCCC3=O)s2)CC1	inactive	
Cc1[nH]c2ccccc2c1C(=O)CSc1nc2ccccc2c(=O)n1CCCN1CCOCC1	inconclusive [inhibitor, single point]	
CC(C)c1ccc(NC(=O)CSc2nc(=O)n(CCCN3CCOCC3)c3c2CCC3)cc1	inconclusive [inhibitor, single point]	
C[C@@H]1CN(S(=O)C(C)(C)C)[C@H](CCO)/C1=C\c1ccccc1 (stereo not given in full)		inactive: -2.42% [at 8.37 µM]
CCOC(=O)C(C)(C)Oc1ccc(Cl)cc1	inconclusive [inhibitor, full curve, poor fit]	
CCCN(C(=O)COC(=O)c1cc(CC)c(C)s1)c1c(N)n(Cc2ccccc2)c(=O)[nH]c1=O	inconclusive [inhibitor, partial curve]	
COc1ccc(C(=O)Nc2c(Cl)cc(Cl)cc2C(=O)N2CCC(C)CC2)cc1	inconclusive [inhibitor, full curve]	
COc1ccccc1CN1CCN(Cc2nc(-c3ccccc3)no2)CC1	inactive	
O=C(O)/C=C/C(=O)Nc1ccc(Oc2ncnc3cc(Cl)ccc23)nc1	inactive	
COc1ccccc1N=Nc1nc(-c2ccccc2)c(-c2ccccc2)[nH]1	active: 11.2 µM	
CCOc1ccc(Br)cc1/C=N/O	active: 8.91 µM	
COc1ccc(Cl)cc1C(=O)Nc1ccc(NC(=O)c2ccco2)cc1	inconclusive [inhibitor, partial curve]	
CCOc1ccc(C2=Nn3c(nnc3-c3ccccc3OC)SC2)cc1	inconclusive [inhibitor, partial curve]	
COc1cccc(COC(=O)C2CCN(S(=O)(=O)c3ccc(C)cc3)CC2)c1OC	inactive	
O=C(N/N=C/c1ccc(OC(F)F)cc1OC(F)F)NC1CCCCC1	inconclusive [inhibitor, single point]	
Cn1ccnc1C1CCCCN1C(=O)c1cc(COc2ccc(F)cc2Cl)on1 (stereo not given)	inconclusive [inhibitor, single point]	
COc1ccc(NC(=O)Nc2cccc3ccccc23)c(OC)c1	inactive	
Cc1c(C(=O)N2CCN(c3ccc(F)cc3)CC2)sc2ncnc(N3CCN(c4ccccn4)CC3)c12	inconclusive [inhibitor, single point]	
